± gives the uncertainty stated by the source. In all, about 9,900 compounds were measured (“viability index relative to DMSO control”: median about 1, lowest 2% from about 0.85 on). This is one part of the list.
Tested on: Plasmodium falciparum NF54 stage V gametocytes
Assay: viability index relative to DMSO control (fraction); higher = less gametocyte killing
Details: 2.5 µM, incubation time: 72 h
Procedure, shortened: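 Gametocytes (P. falciparum NF54, stage V) were treated with compound at 2.5 µM for 72 hr at 37°C in low oxygen, in serum-free medium at 0.75% gametocytemia and 1.25% hematocrit. Counts of 20–70 µm2 red particles, taken from one field per well after MitoTracker Red CMXRos with saponin, were divided by the plate mean of solvent-only wells. This ratio is the viability index.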

[1] = library set: Broad Institute DOS

Compound	viability index [1]	viability index (library set: Broad Institute Blood Stage)
C[C@@H](O)C#Cc1ccc([C@H]2[C@@H](CO)N3CCCCN(C(=O)c4ccc5c(c4)OCO5)C[C@H]23)cc1	1.06 ± 0.063	–
C[C@H](CO)N1C[C@H](C)[C@H](CN(C)C(=O)C2CCCCC2)OCCCC[C@H](C)Oc2ccc(NS(=O)(=O)c3ccccc3)cc2C1=O	1.02 ± 0.078	–
O=C(Cc1ccccc1)N1CC[C@@H]2[C@H](CO)Nc3ccc(C#Cc4cccc(F)c4)cc3[C@@H]21	1.07 ± 0.066	–
CO[C@@H](CN(C)S(=O)(=O)c1ccc(C)cc1)[C@H](C)CN(C(=O)Nc1ccccc1F)[C@H](C)CO	0.978 ± 0.083	–
Cc1noc(C)c1NC(=O)Nc1ccc2c(c1)C(=O)N(C)[C@H]1CC[C@@H](CC(=O)N[C@@H]3CCN(Cc4ccccc4)C3)O[C@@H]1CO2	1.08 ± 0.067	–
CO[C@H]1CN(C)C(=O)c2ccc(NC(=O)NC(C)C)cc2OC[C@H](C)N(Cc2ccc(-c3ccccn3)cc2)C[C@H]1C	1.02 ± 0.045	–
COCC(=O)N1[C@H](CO)[C@@H]2c3ccccc3N(C(=O)Nc3ccccc3Cl)C[C@@H]21	1.01 ± 0.028	–
CCCNC(=O)C[C@H]1CC[C@@H]2[C@H](COC[C@H](O)CN2Cc2ccncc2)O1	1.03 ± 0.062	–
N#C[C@@H]1[C@H](c2ccc(-c3cccc(F)c3)cc2)[C@@H](CO)N1C(=O)NC1CCCC1	0.9966 ± 0.0022	–
COc1ccc2c3c([C@@H](CO)N(C[C@]33CN(C3)C(=O)Cc3ccncc3)C(=O)Nc3ccc(F)cc3)n(C)c2c1	0.974 ± 0.085	–
O=C(C[C@@H]1CC[C@H]2[C@@H](COC[C@@H](O)CN2C(=O)c2cc(Cl)cc(Cl)c2)O1)N1CCc2ccccc2C1	0.985 ± 0.06	–
CO[C@H]1CC[C@H]2CCOc3c(C#N)cccc3C(=O)N(C)CCCC(=O)N(C)C[C@H]1O2	1.06 ± 0.03	–
CN1c2ccc(-c3cccc(C#N)c3)cc2[C@H]2[C@H](CCN2C(=O)Cc2ccccn2)[C@H]1CO	1.09 ± 0.012	–
N#C[C@@H]1[C@@H](c2ccccc2C2=CCCCC2)[C@H](CO)N1C(=O)c1ccccn1	1.03 ± 0.089	–
COCC(=O)NC[C@H]1[C@@H](c2ccccc2)[C@@H](CO)N1C(=O)c1ccccc1	0.966 ± 0.074	–
CC(C)NC(=O)N1[C@H](CO)[C@H]2c3ccccc3NC[C@H]21	0.959 ± 0.042	–
CCCN(C)C[C@@H]1Oc2cc(/C=C/c3ccccc3)ccc2S(=O)(=O)N([C@H](C)CO)C[C@@H]1C	0.9475 ± 0.00097	–
Cc1noc(C)c1S(=O)(=O)N(C)C[C@H]1OCc2ccccc2-c2c(n(C)c3ccccc23)C(=O)N([C@@H](C)CO)C[C@@H]1C	1.01 ± 0.094	–
CN1C(=O)c2cc(NC(=O)Cc3cccs3)ccc2OC[C@H]2O[C@H](CC(=O)NCc3ccc(-c4ccccc4)cc3)CC[C@@H]21	1.15 ± 0.1	–
O=C(C[C@@H]1C[C@H]2c3cc(NC(=O)Nc4ccccc4F)ccc3O[C@H]2[C@H](CO)O1)NCc1ccccn1	1.07 ± 0.032	–
CO[C@H](CN(C)C(=O)C1CCOCC1)[C@H](C)CN(C(=O)Nc1ccc(C(F)(F)F)cc1)[C@@H](C)CO	0.948 ± 0.098	–
N#C[C@@H]1[C@H](c2ccccc2)[C@@H](CO)N1S(=O)(=O)c1cccc(F)c1	1.02 ± 0.0084	–
COc1ccccc1-c1ccccc1[C@H]1[C@@H](C#N)N(C(=O)CN(C)C)[C@@H]1CO	1.14 ± 0.11	–

Compound	viability index [1]	viability index (library set: Broad Institute Blood Stage)
CCS(=O)(=O)N1CC[C@@]2(CC1)CN([C@@H](CO)c1c2c2ccc(OC)cc2n1C)C(=O)c1cccc(F)c1	1.02 ± 0.079	–
O=C(C[C@@H]1C[C@@H]2c3cc(NC(=O)c4ccc5c(c4)OCO5)ccc3O[C@@H]2[C@@H](CO)O1)NCCN1CCCCC1	1.069 ± 0.0014	–
Cc1noc(C)c1S(=O)(=O)N(C)C[C@@H]1OCCCC[C@@H](C)Oc2ccc(NS(=O)(=O)c3cn(C)cn3)cc2C(=O)N([C@H](C)CO)C[C@@H]1C	1.11 ± 0.14	–
C[C@H](CO)N1C[C@H](C)[C@H](CN(C)C(=O)C2CCOCC2)Oc2ncc(-c3cccc(C#N)c3)cc2C1=O	1.09 ± 0.028	–
CO[C@H]1CN(C)C(=O)c2ccc(NC(=O)Nc3ccccc3)cc2OC[C@@H](C)N(C(=O)CC2CC2)C[C@@H]1C	1.07 ± 0.041	–
CC(=O)N1[C@H](CO)[C@H](c2ccccc2)[C@@H]1CN(C)S(=O)(=O)c1ccccc1	1 ± 0.033	–
CCCNC(=O)C[C@@H]1CC[C@H]2[C@@H](COC[C@@H](O)CN2Cc2ccncc2)O1	0.968 ± 0.11	–
C[C@@H]1CN([C@H](C)CO)C(=O)c2ccccc2-c2ccccc2CO[C@@H]1CN(C)Cc1ccc(Oc2ccccc2)cc1	1.028 ± 0.0055	–
COCCNC(=O)C[C@@H]1CC[C@H]2[C@@H](COC[C@H](O)CN2Cc2ccc(Cl)c(Cl)c2)O1	1.1 ± 0.053	–
COCC(=O)N1C[C@]2(CCN(CC2)C(=O)c2cccnc2)c2c([nH]c3cc(OC)ccc23)[C@H]1CO	1.02 ± 0.016	–
CC(C)C#Cc1ccc([C@@H]2[C@@H](C#N)N(C(=O)c3cccc(F)c3)[C@@H]2CO)cc1	1.03 ± 0.077	–
COc1ccc(S(=O)(=O)Nc2ccc3c(c2)C(=O)N([C@H](C)CO)C[C@H](C)[C@H](CN(C)S(=O)(=O)c2ccc(Cl)cc2)OCCCC[C@H](C)O3)cc1	0.9557 ± 0.004	–
CO[C@H]1CN(C)C(=O)c2ccc(NS(=O)(=O)c3ccc(C)cc3)cc2OC[C@@H](C)N(C)C[C@H]1C	1.05 ± 0.09	–
CN1C(=O)c2cc(NS(=O)(=O)c3cccc(F)c3)ccc2OC[C@H]2O[C@H](CC(=O)NCCN3CCCCC3)CC[C@H]21	1.04 ± 0.035	–
C[C@H]1CN([C@@H](C)CO)C(=O)CCCn2nncc2CO[C@H]1CN(C)Cc1ccc2c(c1)OCCN2C	1.02 ± 0.04	–
COc1cccc(-c2cccc(-c3nc(C(=O)O)cc4c3[C@H](CCO)N(S(=O)C(C)(C)C)C4)c2)c1 (some centres undefined)	1.03 ± 0.037	–
C[C@@H]1CN([C@H](C)CO)C(=O)c2cc(NS(=O)(=O)c3cccs3)ccc2O[C@@H](C)CCCCO[C@@H]1CN(C)C(=O)c1ccncc1	1.14 ± 0.16	–
COCC(=O)N1[C@@H](CO)[C@@H]2c3ccccc3NC[C@@H]21	0.96 ± 0.099	–
CCCC(=O)Nc1ccc2c(c1)OC[C@@H](C)N(Cc1cc(F)ccc1F)C[C@@H](C)[C@H](OC)CN(C)C2=O	–	0.883 ± 0.078
N#C[C@H]1[C@H](c2ccccc2C2=CCCC2)[C@@H](CO)N1C(=O)NC1CCCCC1	1.06 ± 0.028	–
O=C(C[C@H]1C=C[C@@H](NC(=O)c2ccncc2)[C@H](CO)O1)NCC1CC1	1.029 ± 0.0019	–
Cc1ccc(S(=O)(=O)N(C)C[C@H]2Oc3c(NS(C)(=O)=O)cccc3C(=O)N([C@@H](C)CO)C[C@H]2C)cc1	0.901 ± 0.019	–
COc1ccc(NC(=O)N2C[C@@H]3N[C@H](C2)[C@H]3c2ccc(-c3ccncc3)cc2)cc1	1.14 ± 0.078	–

Compound	viability index [1]	viability index (library set: Broad Institute Blood Stage)
C[C@@H]1CCCCO[C@H](CN(C)C(=O)c2ccncc2)[C@H](C)CN([C@@H](C)CO)C(=O)c2cc(NS(=O)(=O)c3cccs3)ccc2O1	1.16 ± 0.052	–
COCCNC(=O)[C@H]1[C@H](CO)[C@H]2Cn3c(ccc(-c4ccc(F)cc4)c3=O)[C@@H]1N2C(=O)NC(C)C	1.02 ± 0.045	–
C[C@H](CO)N1C[C@H](C)[C@@H](CN(C)Cc2ccc(Cl)c(Cl)c2)Oc2c(NS(=O)(=O)c3ccc(F)cc3)cccc2C1=O	1.07 ± 0.068	–
C[C@@H]1CN([C@H](C)CO)C(=O)Cc2cc(NC(=O)CCC(F)(F)F)ccc2O[C@H]1CN(C)CC1CC1	0.95 ± 0.11	–
C[C@@H]1CN([C@H](C)CO)C(=O)Cc2cc(NC(=O)CCN3CCOCC3)ccc2O[C@@H]1CN(C)Cc1ccc(C(=O)O)cc1	1 ± 0.17	–
COc1ccc2c3c([nH]c2c1)[C@@H](CO)NC[C@]31CN(C1)C(=O)Nc1ccc(F)cc1F	0.99 ± 0.063	–
CN(C)CC(=O)N[C@@H]1C=C[C@H](CC(=O)NCc2ccc(Cl)cc2)O[C@H]1CO	1.04 ± 0.045	–
COc1ccc(CN2C[C@@H](O)COC[C@@H]3O[C@H](CC(=O)N(C)C)CC[C@H]32)cc1	0.964 ± 0.052	–
CC(C)CC#Cc1ccc([C@@H]2[C@@H](CO)N3C(=O)CN(C(=O)c4cccc(F)c4)C[C@@H]23)cc1	1.01 ± 0.054	–
C[C@H]1CN([C@@H](C)CO)C(=O)CCCn2cc(nn2)CO[C@@H]1CN(C)C(=O)NC1CCCCC1	1.01 ± 0.038	–
COc1ccc2c3c([C@@H](CO)N(C[C@]33CCN(CC4CCCCC4)CC3)S(C)(=O)=O)n(C)c2c1	1.07 ± 0.036	–
COCCNC(=O)C[C@H]1CC[C@@H]2[C@@H](COc3ccc(NC(=O)Nc4cccc(F)c4)cc3C(=O)N2C)O1	1.09 ± 0.12	–
C[C@@H](O)C#Cc1ccc([C@H]2[C@H]3CN(CC4CC4)CCCCN3[C@H]2CO)cc1	1.034 ± 0.0055	–
CO[C@H]1CN(C)C(=O)c2ccc(NS(=O)(=O)c3c(C)noc3C)cc2OC[C@H](C)NC[C@@H]1C	1.08 ± 0.069	–
COc1ccc(NC(=O)N(C)C[C@@H]2OCc3cnnn3CCCC(=O)N([C@@H](C)CO)C[C@@H]2C)c(OC)c1	1.02 ± 0.043	–
CC(C)(C)[S@](=O)N1Cc2cc(C(=O)NCCc3ccncc3)nc(-c3cccc(-c4cccc(C#N)c4)c3)c2[C@@H]1CCO	1.08 ± 0.081	–
Cc1noc(C)c1NC(=O)N1C[C@H](O)COC[C@H]2O[C@@H](CC(=O)N[C@H]3CCN(Cc4ccccc4)C3)CC[C@@H]21	1.04 ± 0.011	–
N#Cc1cccc(-c2ccc([C@@H]3[C@@H]4CN(C(=O)Nc5ccc(C(F)(F)F)cc5)C[C@H]3N4)cc2)c1	0.864 ± 0.011	–
CCCNC(=O)N1[C@@H](C#N)[C@H](c2ccc(-c3ccccc3F)cc2)[C@@H]1CO	1.05 ± 0.04	–
O=C(NCc1ccc2c(c1)OCO2)[C@H]1[C@H](CO)[C@H]2Cn3c(cccc3=O)[C@@H]1N2Cc1cncnc1	1.09 ± 0.035	–
C/C=C/c1ccccc1[C@@H]1[C@@H](CO)N(c2ncc(CC)s2)[C@H]1C#N	1.12 ± 0.12	–
COc1cccc(NC(=O)C[C@H]2CC[C@H]3[C@H](COc4ccc(NC(=O)C5CC5)cc4C(=O)N3C)O2)c1	1.16 ± 0.098	–
O=C(C[C@@H]1C[C@H]2c3cc(NS(=O)(=O)c4ccccc4)ccc3O[C@H]2[C@H](CO)O1)NCC(F)(F)F	1.07 ± 0.016	–

— the supplement of paper PMC4723716
